Assay results taken from the supplement of paper PMC3334620.
In all, about 33,000 sequences were measured (“E-score (-0.5 to 0.5)”: median about -0.043, highest 2% from about 0.37 on). This is one part of the list.

biological target: T1, Upc2 (UniProt Q12151); test: PBM E-score (8-mer binding enrichment) (E-score (-0.5 to 0.5)); higher = stronger / more preferred TF binding; most listed sequences are background and not binding sites; details: protein concentration: 200 nM; construct: GST-full length
T1 sequence: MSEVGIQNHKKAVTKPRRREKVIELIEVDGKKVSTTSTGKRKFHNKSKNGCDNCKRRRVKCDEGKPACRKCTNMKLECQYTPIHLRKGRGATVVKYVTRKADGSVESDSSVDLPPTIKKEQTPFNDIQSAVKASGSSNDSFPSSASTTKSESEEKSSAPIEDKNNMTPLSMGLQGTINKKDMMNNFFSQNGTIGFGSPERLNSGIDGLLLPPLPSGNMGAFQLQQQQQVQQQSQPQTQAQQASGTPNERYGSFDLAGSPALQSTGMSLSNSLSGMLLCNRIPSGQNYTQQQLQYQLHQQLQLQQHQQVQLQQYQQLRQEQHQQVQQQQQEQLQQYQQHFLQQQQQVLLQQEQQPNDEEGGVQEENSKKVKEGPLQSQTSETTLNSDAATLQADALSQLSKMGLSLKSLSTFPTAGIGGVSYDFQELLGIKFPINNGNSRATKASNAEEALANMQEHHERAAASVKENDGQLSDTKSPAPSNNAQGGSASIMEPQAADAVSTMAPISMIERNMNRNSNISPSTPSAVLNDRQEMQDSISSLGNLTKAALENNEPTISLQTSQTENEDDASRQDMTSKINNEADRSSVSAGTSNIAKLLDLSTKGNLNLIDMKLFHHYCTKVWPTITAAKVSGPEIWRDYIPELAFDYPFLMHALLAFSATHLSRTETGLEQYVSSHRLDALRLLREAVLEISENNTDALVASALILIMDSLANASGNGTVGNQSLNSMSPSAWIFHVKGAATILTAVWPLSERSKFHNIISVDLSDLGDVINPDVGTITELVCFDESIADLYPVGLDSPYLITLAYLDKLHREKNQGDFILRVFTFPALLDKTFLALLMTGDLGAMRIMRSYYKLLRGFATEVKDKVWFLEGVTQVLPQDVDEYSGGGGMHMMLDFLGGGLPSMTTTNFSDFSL
Summary of the method: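 Yeast transcription factors carrying a GST tag, as full-length proteins or DNA-binding domains, were produced by PURExpress in vitro transcription/translation. About 100-200 nM protein was applied to universal all-10-mer Agilent arrays, double-stranded by primer extension on fresh or once-stripped slides. Bound protein was detected with fluorescent anti-GST, and scans were normalised with masliner. The Universal PBM Analysis Suite gave each ungapped eight-base word, pooled with its reverse complement, an E-score, a modified Wilcoxon-Mann-Whitney statistic.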

| Sequence | PBM E-score |
| --- | --- |
| CTTGTTAC | -0.0553 |
| ATGGTTAA | -0.0265 |
| ACCGGTCC | -0.299 |
| AGCAGACC | -0.0454 |
| AAGTCGTG | -0.0736 |
| GACTAACA | 0.121 |
| CCTCTGTA | 0.0279 |
| GAGGTAGC | 0.0116 |
| ACAAAACG | 0.133 |
| AATAGTGT | 0.0638 |
| CGGTCACA | 0.0569 |
| CCTATGCC | -0.13 |
| CACGGCCA | -0.314 |
| TGCGGTAA | 0.125 |
| GGAGGGGA | -0.134 |
| GCCAACAA | -0.136 |
| CCAGCAAG | -0.121 |
| CAAGATCC | -0.0814 |
| GAGAACTA | 0.00901 |
| CACCCAAG | 0.127 |
| TCATAGCA | -0.203 |
| CCGACGAG | 0.1 |
| CGGGGCAG | 0.131 |
| CTTGAATC | -0.0151 |
| CTGGAGGA | -0.284 |

| Sequence | PBM E-score |
| --- | --- |
| AACCTAGG | -0.138 |
| GCCGGGAA | -0.0419 |
| AAACGACG | 0.476 |
| CAGCATCC | -0.146 |
| GATCCTGA | 0.0221 |
| CCGAGGGC | 0.094 |
| TACCCCCA | -0.076 |
| CGTGCTGA | -0.0663 |
| AGCCTTAC | 0.00944 |
| GGTTAAAA | 0.133 |
| CTACTACC | -0.0579 |
| TGCCTTAA | 0.14 |
| ACACGTAA | 0.165 |
| CACACTGA | -0.162 |
| ATATAGGG | -0.121 |
| GTCGCCCA | -0.125 |
| GTGATGTA | 0.132 |
| GGGAGACC | -0.234 |
| AACCCGCC | 0.0828 |
| CTCACGCC | 0.0188 |
| GTACAGAA | 0.191 |
| AATCGATC | 0.0238 |
| GCAAGTAC | 0.0344 |
| GAAAGGGC | -0.26 |
| AAGACAAG | -0.0929 |

| Sequence | PBM E-score |
| --- | --- |
| CTTGTCAC | -0.158 |
| CGTGGGTA | -0.187 |
| CTGAGTCC | -0.2 |
| AGATGTGG | -0.097 |
| AGCATGAC | -0.215 |
| CCTAAACA | -0.063 |
| ATATCCAA | -0.0675 |
| CCGAGCGC | 0.196 |
| AATTGTTC | 0.125 |
| TAGTCTAA | -0.0448 |
| TTCTCCAA | -0.0332 |
| GCAAGGCC | -0.139 |
| CGCTAACG | 0.282 |
| AACCTATC | -0.0765 |
| AAAGCTCT | -0.0987 |
| CTTGGCTC | -0.131 |
| AGCGGAGG | -0.133 |
| GGCGTTAC | -0.0441 |
| ACCTTAGG | -0.264 |
| ACGTAGGC | 0.0415 |
| AGATACCG | 0.0191 |
| CTTACATA | -0.0528 |
| CAATCGTC | -0.144 |
| ACGAAGGG | 0.287 |
| CCGTCACA | -0.132 |

| Sequence | PBM E-score |
| --- | --- |
| TACTTTCA | -0.123 |
| CCCTACTC | -0.0198 |
| AATCTACA | 0.0784 |
| AGTGACAC | -0.0216 |
| CCCCCTTA | -0.148 |
| AGCTTGAC | -0.102 |
| GAATCACA | -0.219 |
| CCGTATCG | 0.319 |
| CCGCGCAG | 0.0562 |
| GGGCCACA | -0.0724 |
| CCGTCGTC | 0.0861 |
| ATTCGCGC | 0.0674 |
| CAGACGAG | 0.23 |
| CGCTTAAC | 0.355 |
| AGAAGCCC | -0.1 |
| CATAGGTC | -0.0923 |
| GGGCCCCA | -0.259 |
| CAAGTACG | 0.267 |
| AGTCCTCA | -0.296 |
| ATCCTGCA | -0.239 |
| CGCAGACG | 0.116 |
| GACCGATC | -0.0542 |
| ATTGAATG | -0.0017 |
| AAGGTCCA | -0.0241 |
| GTGTTGAA | 0.001 |

| Sequence | PBM E-score |
| --- | --- |
| CCAAATGC | -0.237 |
| AGTACTAT | 0.0865 |
| ATTACTCA | -0.153 |
| ACTATGCC | -0.178 |
| CCCTGCGG | -0.147 |
| AACACTCT | -0.108 |
| ACAATGTC | -0.0552 |
| AAAAGTGG | -0.0592 |
| ATCCGCCG | 0.00363 |
| AGTTGTTA | -0.105 |
| AAGCGTGT | -0.116 |
| AGCCAGTG | 0.00163 |
| TCGGGTCA | 0.0854 |
| CGCTATAA | 0.187 |
| CGCATAGA | 0.158 |
| AAACGCTT | 0.156 |
| TCTTAACA | 0.0357 |
| CACTTGAA | -0.0225 |
| AGGAGCAT | -0.227 |
| AGTTAACC | -0.00421 |
| CGAGACGC | 0.0677 |
| AATACATT | -0.0263 |
| CGTGACTA | -0.103 |
| CTAATCGA | 0.272 |
| AATACCGA | 0.096 |

| Sequence | PBM E-score |
| --- | --- |
| ACTCTGAA | -0.087 |
| AGATAAGA | 0.0794 |
| CTTACAGA | -0.17 |
| AGCGCAGC | -0.0126 |
| CAATGCAG | -0.225 |
| CCCGATGA | -0.0985 |
| TATGGCGA | 0.0496 |
| ATAGAGAA | -0.0905 |
| CAGTCAAA | 0.126 |
| ACAGGCAC | -0.00991 |
| CGGGTTCA | -0.0299 |
| CATATAAC | 0.0255 |
| ACCCCACT | 0.101 |
| ACAGTATG | 0.0307 |
| AGTCCACA | -0.111 |
| CACTTCCA | -0.0511 |
| AGCGCCTC | -0.108 |
| AAAGCAAC | 0.00844 |
| AACAGTCG | 0.0536 |
| GGGGATAA | -0.0271 |
| CCCTTCGC | -0.101 |
| ACTCCGGG | -0.0707 |
| TCTAGCCA | -0.0821 |
| AAATGTAT | 0.0534 |
| CAAGCCGA | -0.00778 |

| Sequence | PBM E-score |
| --- | --- |
| GGTCTTCA | -0.237 |
| AACATTAT | 0.00065 |
| CAGATGTA | -0.341 |
| AAGCACAG | -0.167 |
| ACATTGCG | 0.0405 |
| AACACCCA | -0.161 |
| GCGCTGTA | -0.0139 |
| GCACGAAA | 0.127 |
| ATTCGTGA | 0.0183 |
| GAGTGCCA | -0.207 |
| ATAGAGAT | 0.17 |
| GCAGCCGA | -0.0888 |
| ATCATATC | 0.0735 |
| GACAATGA | -0.175 |
| GCCAAGTA | -0.0175 |
| CGCTACTA | 0.0957 |
| TGCTGACA | -0.162 |
| CGCAAAAA | 0.192 |
| CAAGAATC | -0.0877 |
| ATCAACGA | 0.184 |
| CAGGACAC | -0.306 |
| TATAATCA | 0.0413 |
